From the supplement of paper PMC3334620
In all, about 33,000 sequences were measured (“E-score (-0.5 to 0.5)”: median about -0.012, highest 2% from about 0.29 on). This is one part of the list.

Target: T1, Ybr033w (UniProt P38073)
T1 sequence: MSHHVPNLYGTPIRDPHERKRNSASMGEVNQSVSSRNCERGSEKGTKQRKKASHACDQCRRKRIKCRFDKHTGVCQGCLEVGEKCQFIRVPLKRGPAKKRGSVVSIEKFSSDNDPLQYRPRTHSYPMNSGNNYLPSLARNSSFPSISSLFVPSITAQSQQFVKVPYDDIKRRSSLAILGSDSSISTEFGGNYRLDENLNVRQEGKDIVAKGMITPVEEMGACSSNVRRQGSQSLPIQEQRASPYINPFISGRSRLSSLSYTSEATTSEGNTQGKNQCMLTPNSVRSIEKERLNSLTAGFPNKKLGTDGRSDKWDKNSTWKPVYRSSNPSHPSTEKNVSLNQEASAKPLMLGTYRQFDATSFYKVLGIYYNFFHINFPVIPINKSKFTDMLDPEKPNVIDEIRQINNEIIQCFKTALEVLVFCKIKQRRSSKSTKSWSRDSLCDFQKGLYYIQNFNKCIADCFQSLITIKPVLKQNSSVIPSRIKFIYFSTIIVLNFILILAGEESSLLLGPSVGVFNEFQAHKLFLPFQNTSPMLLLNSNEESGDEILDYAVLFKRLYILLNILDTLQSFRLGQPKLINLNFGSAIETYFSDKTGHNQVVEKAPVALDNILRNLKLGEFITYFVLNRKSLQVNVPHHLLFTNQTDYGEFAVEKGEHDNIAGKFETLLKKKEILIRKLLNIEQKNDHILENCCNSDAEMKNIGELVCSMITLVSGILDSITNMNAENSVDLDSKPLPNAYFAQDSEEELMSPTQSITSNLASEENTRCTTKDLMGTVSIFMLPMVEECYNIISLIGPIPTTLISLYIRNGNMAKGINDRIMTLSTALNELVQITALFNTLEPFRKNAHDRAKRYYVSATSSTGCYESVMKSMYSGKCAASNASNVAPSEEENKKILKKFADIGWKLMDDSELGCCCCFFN
Assay: PBM E-score (8-mer binding enrichment) (E-score (-0.5 to 0.5)); higher = stronger / more preferred TF binding; most listed sequences are background and not binding sites
Settings: protein concentration: 200 nM; construct: GST-full length
Procedure, shortened: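 E-scores (a modified Wilcoxon-Mann-Whitney statistic) were assigned by the Universal PBM Analysis Suite to every ungapped eight-base word pooled with its reverse complement. The input came from universal all-10-mer Agilent arrays made double-stranded by primer extension and probed with GST-tagged yeast transcription factors at about 100-200 nM. Fluorescent anti-GST detected bound protein, and masliner normalised the scans.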

Going from ATTTATTA to CGCACAAG, the “PBM E-score” value falls from 0.293 to -0.0851.

Compared with AAAAGATT, CAGAGCTA is lower in “PBM E-score” value: 0.129 for the first, -0.286 for the second.

First: CACATTTC
Second: CAATACAA
The “PBM E-score” value of the first is lower: 0.147 for the first, 0.222 for the second.

First: GGTGCCTA
Second: GAGGAGAA
The “PBM E-score” value of the first is higher: -0.0138 for the first, -0.0563 for the second.

First: CATAACTA
Second: CAGGGAGC
The “PBM E-score” value of the first is higher: 0.0651 for the first, -0.283 for the second.

Going from CTCAGTGC to CTTAGCCA, the “PBM E-score” value falls from -0.145 to -0.154.

First: CGGGTACG
Second: TACATGTA
The “PBM E-score” value of the first is lower: -0.232 for the first, 0.098 for the second.

Compared with CCCCCCAC, CCAGACTA is higher in “PBM E-score” value: -0.411 for the first, 0.0717 for the second.

First: ATGGGACC
Second: CCAATTAG
The “PBM E-score” value of the first is lower: -0.164 for the first, 0.177 for the second.

Going from CTAGCGCA to CTCGGGAA, the “PBM E-score” value rises from -0.0377 to 0.0974.

First: AGTAACAC
Second: CCGATCAA
The “PBM E-score” value of the first is lower: 0.0536 for the first, 0.135 for the second.

Going from GGATGAAC to GTCGGCCA, the “PBM E-score” value falls from 0.292 to -0.277.

Going from CCCTAAAA to ACCAAGCG, the “PBM E-score” value rises from -0.189 to -0.0846.

Compared with AACGGACT, ACGGCACA is lower in “PBM E-score” value: -0.0614 for the first, -0.0917 for the second.

Going from GTTTATTA to GTCCTCCA, the “PBM E-score” value falls from 0.276 to -0.076.

Compared with ACATCCAA, GGGCGGAA is higher in “PBM E-score” value: 0.0377 for the first, 0.166 for the second.

Going from ATCGGAAG to TAATAGTA, the “PBM E-score” value rises from 0.131 to 0.297.

Going from CCTAGGAG to ATAACACA, the “PBM E-score” value rises from -0.194 to 0.198.

Compared with ATTGTTGA, AAGTAGTG is lower in “PBM E-score” value: 0.114 for the first, 0.00128 for the second.

Compared with ATGCAAGC, ATAGATCA is higher in “PBM E-score” value: 0.0876 for the first, 0.214 for the second.

Going from AGTTAGAC to GGTAGCAA, the “PBM E-score” value falls from 0.117 to -0.036.

Going from TATCTAGA to AGTCAGAA, the “PBM E-score” value falls from 0.131 to 0.0702.

Compared with CTGGCAAC, CATGATGG is higher in “PBM E-score” value: -0.21 for the first, -0.183 for the second.

Going from ACAGCCTG to CGGCACAC, the “PBM E-score” value falls from -0.0521 to -0.0604.

Compared with AGGTAGCC, GAAGCAGC is higher in “PBM E-score” value: -0.202 for the first, -0.153 for the second.

Compared with CATATTGC, CATCGGCC is lower in “PBM E-score” value: 0.0404 for the first, -0.226 for the second.

Going from ATCTAATC to CTAGTAAG, the “PBM E-score” value falls from 0.0982 to 0.068.

First: ACAGAAGG
Second: CTTGAGTA
The “PBM E-score” value of the first is lower: -0.134 for the first, 0.0732 for the second.

First: ATTTATAA
Second: ACGCTACT
The “PBM E-score” value of the first is higher: 0.231 for the first, -0.0469 for the second.

Going from AGATCATC to CAGGCAGC, the “PBM E-score” value falls from 0.114 to -0.163.

Compared with ACGAAGAG, AGAGCTAA is lower in “PBM E-score” value: 0.106 for the first, -0.0418 for the second.

First: ATACTCTG
Second: ATAGTTGA
The “PBM E-score” value of the first is lower: 0.0913 for the first, 0.167 for the second.

Going from AAGGAGAA to CCGGATGC, the “PBM E-score” value falls from 0.069 to -0.178.

Going from CTTGATTC to ACCCAACA, the “PBM E-score” value falls from 0.133 to -0.0697.

Compared with ACTAATTG, CCCATTAG is lower in “PBM E-score” value: 0.178 for the first, -0.293 for the second.

Going from ATATGAGA to GAGAGTGC, the “PBM E-score” value falls from 0.11 to -0.12.

Going from GAACGTGC to ACGTCGAG, the “PBM E-score” value rises from -0.266 to -0.0484.

Going from CGTGCAAA to CCAGATCC, the “PBM E-score” value falls from 0.0372 to -0.148.

First: GGCAAACA
Second: ACGGTCCG
The “PBM E-score” value of the first is higher: -0.0528 for the first, -0.154 for the second.

First: GGGCACAA
Second: GTCGAAGA
The “PBM E-score” value of the first is lower: -0.283 for the first, 0.139 for the second.

Compared with CGACGTAC, CGTAGACG is lower in “PBM E-score” value: 0.0838 for the first, -0.104 for the second.

First: GCGTGTAA
Second: AACAACTC
The “PBM E-score” value of the first is lower: -0.0193 for the first, 0.0616 for the second.

First: CGCCCTAC
Second: TCATATAA
The “PBM E-score” value of the first is lower: -0.151 for the first, 0.179 for the second.

Going from AGCTGCCT to ATCGAATA, the “PBM E-score” value rises from -0.188 to 0.0113.

First: GTACATCA
Second: CCACCAGA
The “PBM E-score” value of the first is higher: 0.126 for the first, -0.0357 for the second.

First: TAAATTCA
Second: GGGAGAGA
The “PBM E-score” value of the first is higher: 0.177 for the first, -0.176 for the second.

Going from CTCTAGAA to CCTTGGGC, the “PBM E-score” value falls from -0.0529 to -0.235.

First: AGCTTTAG
Second: GAATTGGC
The “PBM E-score” value of the first is higher: -0.00139 for the first, -0.107 for the second.

Compared with ATAAACAT, GTATGCAA is lower in “PBM E-score” value: 0.289 for the first, 0.145 for the second.

Going from AACCGGTA to TAAGCTGA, the “PBM E-score” value rises from 0.0283 to 0.0674.

Compared with CAATCCAC, ACCGTGTA is lower in “PBM E-score” value: 0.0994 for the first, 0.0634 for the second.

Compared with CTCACCAC, CTGAAGAA is lower in “PBM E-score” value: -0.0271 for the first, -0.0479 for the second.

Going from TAACCTAA to CCGTCTAA, the “PBM E-score” value falls from 0.173 to 0.00875.

Going from CTGTAAGA to ATGAAAAT, the “PBM E-score” value rises from 0.0151 to 0.223.

Going from TAAGAGGA to ATGGCCAC, the “PBM E-score” value falls from 0.0953 to -0.317.

Going from AAAATTAC to CAGTTCAG, the “PBM E-score” value falls from 0.22 to 0.122.

First: AAGGCGAG
Second: GTTGAAAA
The “PBM E-score” value of the first is lower: -0.147 for the first, 0.092 for the second.

Compared with ACCTATAG, CTCAAGAC is lower in “PBM E-score” value: -0.0077 for the first, -0.133 for the second.

Compared with GCAAAAAC, AGGCCATG is lower in “PBM E-score” value: 0.248 for the first, -0.136 for the second.

First: CCTCATAC
Second: TCAGTAAA
The “PBM E-score” value of the first is lower: 0.0263 for the first, 0.206 for the second.

Compared with CTCACCCC, CGTCCCAA is higher in “PBM E-score” value: -0.243 for the first, 0.00715 for the second.

First: CGCCGCGA
Second: GTTAACTA
The “PBM E-score” value of the first is lower: -0.0458 for the first, 0.223 for the second.

Compared with CATCTCCC, CGACTGCA is higher in “PBM E-score” value: -0.183 for the first, -0.126 for the second.

Going from AACCGACT to AACAAACC, the “PBM E-score” value rises from 0.0288 to 0.105.

Going from AGTGACTA to ACAGATGC, the “PBM E-score” value falls from 0.0798 to -0.127.

Compared with CACCCGAC, CTGGCGTC is higher in “PBM E-score” value: -0.212 for the first, -0.172 for the second.

Compared with CCTTTTCA, AAGCGCCA is lower in “PBM E-score” value: -0.0844 for the first, -0.163 for the second.

Compared with ATTCCCTA, AGTCCAAA is lower in “PBM E-score” value: 0.157 for the first, -0.029 for the second.

Compared with ATTGTTGC, ACTTCAAT is higher in “PBM E-score” value: 0.132 for the first, 0.239 for the second.

Going from CCAAAACG to AAGAGCCC, the “PBM E-score” value falls from 0.0101 to -0.189.

First: CCACAGGA
Second: TACACCAA
The “PBM E-score” value of the first is lower: -0.0851 for the first, -0.00646 for the second.

Going from AATAGTCT to AGGCCACT, the “PBM E-score” value falls from 0.21 to -0.165.

Going from TCGCAGAA to ACAGTTTC, the “PBM E-score” value rises from -0.164 to 0.227.

First: AACTGCCC
Second: GCAGTTGA
The “PBM E-score” value of the first is lower: -0.0882 for the first, 0.00275 for the second.

Going from CCCCAGCA to TACCAAGA, the “PBM E-score” value rises from -0.147 to 0.0696.

Going from ATGTCGGC to AAAGGGCT, the “PBM E-score” value falls from -0.136 to -0.246.

First: ACGCGCGT
Second: AGCCTCGG
The “PBM E-score” value of the first is higher: 0.102 for the first, -0.209 for the second.

First: ACGTACAC
Second: AGATGTCA
The “PBM E-score” value of the first is higher: 0.135 for the first, 0.0681 for the second.

First: TATTATAA
Second: AAGCTCCC
The “PBM E-score” value of the first is higher: 0.197 for the first, -0.314 for the second.

Compared with GGTTATGA, GGTGATCA is lower in “PBM E-score” value: 0.0397 for the first, 0.0304 for the second.

First: CAGGCTCA
Second: AGCGCCGG
The “PBM E-score” value of the first is higher: -0.00218 for the first, -0.111 for the second.

Going from AACCAGTT to GGCTAAGA, the “PBM E-score” value falls from 0.168 to -0.169.

Going from TACTGAAA to AGACATTG, the “PBM E-score” value falls from 0.244 to -0.0749.

Going from ACGGAGTA to GCCCCGAC, the “PBM E-score” value falls from 0.0765 to -0.295.

Compared with CGTACACC, AGCCTGAT is higher in “PBM E-score” value: -0.165 for the first, -0.0369 for the second.

Compared with ATCGTCCA, ATACGCAC is higher in “PBM E-score” value: -0.0597 for the first, 0.0336 for the second.
